# Assay results published in paper PMC4336329 (PLoS ONE, 2015).
# About 2,200 (0.71%) of roughly 310,000 compounds showed an effect of 50% or more. Effects have a minus sign here. The list shows a part of the results.
# Target: human ether-à-go-go-related gene (hERG) potassium channel (human, UniProt Q12809)
# Assay: primary screen, population patch clamp on CHO cells stably expressing hERG
# human ether-à-go-go-related gene (hERG) potassium channel, sequence (Q12809 whole entry, looked up): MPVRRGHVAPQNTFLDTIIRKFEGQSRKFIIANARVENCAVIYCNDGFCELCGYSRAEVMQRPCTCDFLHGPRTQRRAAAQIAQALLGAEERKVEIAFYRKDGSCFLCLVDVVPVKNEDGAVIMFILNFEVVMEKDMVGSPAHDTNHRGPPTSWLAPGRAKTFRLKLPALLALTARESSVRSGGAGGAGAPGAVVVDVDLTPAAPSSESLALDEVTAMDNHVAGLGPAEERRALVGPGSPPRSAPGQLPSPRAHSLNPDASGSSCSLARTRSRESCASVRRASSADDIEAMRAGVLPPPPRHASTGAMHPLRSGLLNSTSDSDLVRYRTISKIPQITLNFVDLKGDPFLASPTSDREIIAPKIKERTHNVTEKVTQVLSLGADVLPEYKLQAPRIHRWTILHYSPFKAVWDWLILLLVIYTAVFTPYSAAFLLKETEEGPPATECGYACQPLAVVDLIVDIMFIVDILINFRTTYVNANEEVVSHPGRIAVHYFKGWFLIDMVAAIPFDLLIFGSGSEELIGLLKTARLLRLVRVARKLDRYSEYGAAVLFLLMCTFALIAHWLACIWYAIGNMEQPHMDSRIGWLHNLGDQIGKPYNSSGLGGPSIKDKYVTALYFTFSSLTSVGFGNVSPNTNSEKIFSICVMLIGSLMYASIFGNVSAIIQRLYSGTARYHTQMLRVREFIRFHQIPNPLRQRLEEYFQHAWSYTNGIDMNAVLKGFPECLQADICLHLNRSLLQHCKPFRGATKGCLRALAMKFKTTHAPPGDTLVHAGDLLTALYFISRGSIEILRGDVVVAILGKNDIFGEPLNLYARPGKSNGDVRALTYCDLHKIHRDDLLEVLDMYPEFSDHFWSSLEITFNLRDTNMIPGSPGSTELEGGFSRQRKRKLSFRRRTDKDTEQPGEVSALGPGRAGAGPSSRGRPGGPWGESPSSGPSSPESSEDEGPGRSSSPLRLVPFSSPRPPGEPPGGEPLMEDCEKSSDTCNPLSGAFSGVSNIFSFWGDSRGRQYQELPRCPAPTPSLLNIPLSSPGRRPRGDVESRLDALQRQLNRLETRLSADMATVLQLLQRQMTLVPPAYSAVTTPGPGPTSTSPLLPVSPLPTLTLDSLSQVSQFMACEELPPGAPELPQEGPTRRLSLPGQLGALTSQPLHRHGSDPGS
row,SMILES,"hERG current change (%, negative = inhibition) at 1uM [%]"
1,CCCNC(=S)N1CC2(C)CN(C(=O)C(=O)OCC)CC(C)(C1)C2=O,8.3
2,COC(=O)[C@H](Cc1ccccc1)NC(=O)Cn1ccc(NC(=O)OCc2ccccc2)nc1=O,6.5
3,O=S(=O)(c1ccc(Cl)cc1)N1CCN(c2ncccn2)CC1,2.86
4,Cc1c(N=c2scc(-c3ccccc3)n2C)c(=O)n(-c2ccccc2)n1C,-2
5,Cl.OC(CN1C2=NCCCN2c2ccccc21)c1ccc2c(c1)OCO2 (stereo not shown),-68.6
6,COc1ccc(/C=C(/NC(=O)c2ccco2)C(=O)Nc2ccc(C(C)=O)cc2)cc1,20.9
7,COc1cccc2cc(C(=O)CS(=O)(=O)c3ccc(Cl)cc3)c(=O)oc12,-3.24
8,Cc1csc(NC(=O)CSc2nnc(-c3ccncc3)n2C)n1,1.39
9,COCCC(C(=O)Oc1c(C(C)(C)C)cc(C)cc1C(C)(C)C)c1ccccc1 (stereo not shown),13.1
10,CN(NC(=O)c1cccc(Cl)c1)c1nc(-c2ccccc2)nnc1C(F)(F)F,10.5
11,CCOc1ccc(S(=O)(=O)NCCC(=O)NC2CCN(Cc3ccccc3)CC2)cc1,2.49
12,O=C(NCc1ccc(F)cc1)C1CCC(CNc2c(N3CCOCC3)c(=O)c2=O)CC1 (stereo not shown),6.89
13,CCOP(=O)(OCC)C(NC(=O)CN1C(=O)c2ccccc2S1(=O)=O)C(Cl)(Cl)Cl (stereo not shown),12.8
14,N#CCC(=O)N/N=C/c1ccc(N2N=C(c3ccccc3)CC2c2ccccc2)cc1 (stereo not shown),22.5
15,Cc1ccc(OC(C)C(=O)Nc2ccc(S(=O)(=O)Nc3nccs3)cc2)cc1 (stereo not shown),-8.26
16,COc1cccc(N/C(SCc2ccccc2F)=C(/C#N)C(=O)NCc2cccs2)c1,12.6
17,CCN(C(=O)COC(=O)/C=C/c1cccc(Cl)c1)c1c(N)n(Cc2ccccc2)c(=O)[nH]c1=O,10.6
18,Cc1cc(N2CCOCC2)nc2ccc(NC(=S)NCc3ccc4c(c3)OCO4)cc12,-4.82
19,O=C(O)c1ccccc1OCCN1CCCC1=O,15.3
20,CCC(C)(C)C1CCc2[nH]nc(C(=O)NCCNC(=O)OC(C)(C)C)c2C1 (stereo not shown),17.2
21,COc1ccc(OC)c2nc(-c3cccnc3)ccc12,14.2
22,O=C(NC1CC1)C1=COCCO1,8.61
23,N#Cc1ccccc1OCC(=O)NCC(c1cccs1)N1CCOCC1 (stereo not shown),1.97
24,Cc1ccccc1NC1=NCCCS1,10.7
25,CNC(=S)N(Cc1ccc(OC)cc1)C1CC(=O)N(c2ccc(C(=O)OC)cc2)C1=O (stereo not shown),3.68
26,CC[C@H](C)[C@H](NC(=O)c1ccc(Cl)cc1)C(=O)OCC(=O)c1ccc2c(c1)NC(=O)CO2,-7.29
27,O=C(COc1ccccc1)N1CCN(S(=O)(=O)Cc2ccccc2)CC1,-4.11
28,COc1ccc(CC(=O)NNC(=O)CSc2ccc(C)cc2)cc1,4.73

row,SMILES,"hERG current change (%, negative = inhibition) at 1uM [%]"
1,CCC(=O)N=c1ccn(C2=Nc3ccccc3NC2=C(C#N)C#N)cc1,1.24
2,CCC1CCCCN1CCCNC(=O)c1ccc(CS(=O)(=O)c2ccc(Br)cc2)o1 (stereo not shown),0.453
3,CCOC(=O)Cc1nnc(Nc2ccc(C)cc2)c2ccccc12,5.16
4,Cn1c(/C(C#N)=C(\O)c2ccc(Br)s2)nc2ccccc21,7.96
5,NC(=O)C1CCN(CC(=O)Nc2ccccn2)CC1,8.36
6,O=C(Nc1cnn(Cc2ccc(Cl)cc2)c1)C1CCCC1,-7.77
7,Cc1cccc(C)c1NC(=O)C(=O)NCC1CCCN1S(=O)(=O)c1cccs1 (stereo not shown),12
8,COc1ccc(Oc2ccc(C(F)(F)F)cc2NC(=O)c2ccc(F)cc2)cc1,9
9,CCOC(=O)C1(C)C=C(Nc2ccc(O)cc2)C(=O)N1c1ccc(O)cc1 (stereo not shown),6.39
10,COC(=O)C1=C(C)N(c2ccc(C)c(C)c2)/C(=C/c2ccco2)C1=O,6.25
11,COc1ccccc1C1CN(c2ccccc2)N=C1c1cccs1 (stereo not shown),10.5
12,C/C(=N\NC(=O)c1ccc(CN2CCOCC2)cc1)c1ccc([N+](=O)[O-])cc1,10
13,CCOC(=O)C1(CCc2ccccc2)CCN(C(=O)C2=C(C)OCCO2)CC1,1.82
14,COc1ccc(-c2cn[nH]c2N)c(OC)c1,-4.39
15,O=C(NCCc1cccs1)C1CC(c2ccccc2F)=NO1 (stereo not shown),11.3
16,CCc1cc2c(=O)[nH]c(Cc3ccccc3)nc2s1,4.42
17,O=C(N/N=C/c1ccncc1)c1cnccn1,6.26
18,CN(C(=O)COC(=O)c1ccccc1OCc1ccc(Cl)cc1)c1c(N)n(Cc2ccccc2)c(=O)[nH]c1=O,19.8
19,CCN(CC)S(=O)(=O)c1ccc(N2CCCCC2)c(NC(=O)C2CCN(C(=O)c3ccc(F)cc3)CC2)c1,17.4
20,Cc1cccc(OP(=O)(Oc2cccc(C)c2)OC(c2ccccc2)C(F)(F)F)c1 (stereo not shown),12.1
21,CCOc1ccc(C(=O)CN2CCN(S(=O)(=O)c3ccc(OC)cc3)CC2)cc1,-33.4
22,Cc1ccc2nc(N3CCN(C)CC3)c(C#N)cc2c1,-10
23,Cn1c(=O)cc(SCC(=O)N2CCCC2)c2ccccc21,9.79
24,COc1ccccc1/C=C1\SC(=S)N(CCC(=O)Nc2cccc(O)c2)C1=O,13.1
25,CC1=NN(C(=O)Cc2ccc([N+](=O)[O-])cc2)C(O)(c2cccnc2)C1 (stereo not shown),-11
26,CCOc1ccc(OCCCC(=O)N2CCN(S(=O)(=O)c3ccc(Cl)cc3)CC2)cc1,12.5
27,COc1cc(CN2CCNC(=O)C2CC(=O)NC2CCC2)cc(OC)c1 (stereo not shown),15.7
